Drawing on PubChem BioAssay (NCI), this text covers GI50 and TGI for four compounds.

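In this assay, cells in 96-well plates receive the compound at five concentrations for 48 hours. Endpoints are linearly interpolated between the surrounding concentrations. Abbreviation: GI50, concentration required for 50% inhibition of growth. At the TGI there is no net growth.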 Where only a bound is given, the exact number is not on record here.

For this experiment, the system named is NCI-H322M lung. As to the kind of experiment: growth of human tumour cells (NCI), 48 h.
With `Cn1cc(-c2cc3nc(-c4c[nH]c5ccccc45)cc(N)n3n2)c2ccccc21`, the GI50 was 3.12 µM and the TGI worked out at 12 µM.
The matching figures for `COc1cc2oc(-c3cccc(C(=O)Nc4ccc(Cl)cc4)c3)cc(=O)c2c(OCCN)c1OC`: 9.46 µM and 21.3 µM.
Regarding `COc1ccc(OC)c(/C=C/C(=O)c2nc3ccccc3n2Cc2ccc(F)cc2)c1`, the GI50 was 3.08 µM and the TGI was 19.3 µM.
Consider `Cc1cc(C(NC(=O)C2CC3(CC(Nc4cccc5c4C(=O)N(C4CCC(=O)NC4=O)C5=O)C3)C2)c2ccc3c(c2)OC(F)(F)O3)c(O)c2ncccc12` (stereo not drawn), for which the GI50 was 0.419 µM and the TGI was > 100 µM.
